According to PubChem BioAssay AID485294 (National Center for Advancing Translational Sciences (NCATS), 2010):
About 150 (0.041%) of roughly 370,000 compounds were called active. Inconclusive results, whose numbers are uncertain, are shown with a selection of clear calls. The call rests on the fitted dose curve; in most records, active means well fitted inhibition curve with a large enough effect; inconclusive means small, poorly fitted or top-dose-only effect; inactive means flat fitted curve, though single readings scatter. No potency is given beside an inconclusive call; the fits are too rough.

biological target: Beta-lactamase (Escherichia coli (strain K12)) (UniProt P00811); assay: qHTS Inhibitors of AmpC Beta-Lactamase (assay with detergent); conditions: AmpC hydrolysis of nitrocefin, absorbance 480 nm, 0.01% Triton; activity change, negative = inhibition: at 114 µM (top of the series); further: nearly all actives have a fitted effect of over 25% in size;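 on activity change, negative = inhibition: 0% = no-compound wells and -100% = no-enzyme wells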
Summary of the method: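 20 mM phosphate pH 7.0 + 0.01% (detergent screen) or 0.0001% Triton X-100; 5.3 nM AmpC reagent; cpd preinc 15 min RT; nitrocefin (800 uM stock) to start; A480 q20 s × 4 min; Activity was normalised to no-enzyme and no-compound control wells.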
Potency means the concentration at half of the fitted maximal effect; tags describe the fitted curve by direction and shape.

UniProt P00811, sequence (P00811 whole entry, looked up): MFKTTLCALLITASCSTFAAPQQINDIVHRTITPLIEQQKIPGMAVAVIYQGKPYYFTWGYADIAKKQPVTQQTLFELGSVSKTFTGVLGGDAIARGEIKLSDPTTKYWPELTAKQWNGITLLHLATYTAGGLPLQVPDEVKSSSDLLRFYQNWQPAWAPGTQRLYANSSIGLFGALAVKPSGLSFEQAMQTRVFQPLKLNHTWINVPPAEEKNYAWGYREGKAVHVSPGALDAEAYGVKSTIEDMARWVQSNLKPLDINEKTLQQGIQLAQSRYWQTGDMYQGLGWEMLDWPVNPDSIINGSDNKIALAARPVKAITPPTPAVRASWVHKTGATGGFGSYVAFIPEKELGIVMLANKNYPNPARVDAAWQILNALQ

SMILES | Potency | activity change, negative = inhibition
COc1ccc(NC(=O)c2sc(=S)[nH]c2N)cc1 | inconclusive [inhibitor, partial curve, poor fit] | 
Cc1cc(C(F)(F)F)nn1CCCNC(=O)c1cnccn1 | inconclusive [inhibitor, full curve] | 
COc1ccc(C(=O)NCC(=O)NC2=NCCS2)cc1 | inconclusive [inhibitor, full curve, poor fit] | 
COc1ccc(C(=O)c2sc3nc(-c4ccc(F)cc4)ccc3c2N)cc1 |  | inactive: 16.4%
COc1ccc(-c2nc(Cn3c(SCc4cccc(C(F)(F)F)c4)nc4cccnc43)c(C)o2)cc1OC |  | inactive: 9.93%
COc1ccc(C(=O)Nc2ccc(C(=O)NCCc3ccc(OC)c(OC)c3)cc2)cc1 |  | inactive: 3.31%
O=c1c2ccccc2nc(SCc2nc(-c3ccccc3)no2)n1-c1ccc(F)cc1 | inconclusive [inhibitor, full curve, poor fit] | 
O=C(CSc1nc2ccccc2n1Cc1ccccc1)N/N=C/c1ccccc1C(=O)O |  | inactive: 4.96%
Cc1cccc(Cn2cc(C(=O)Nc3cc(F)ccc3F)ccc2=O)c1 |  | inactive: 1.45%
CC(CNC(=O)c1ccc(C#N)cc1)NC(=O)c1ccc(C#N)cc1 (stereo not given) |  | inactive: 2.89%
COc1ccc(N2C(=O)Cc3cc(OC)c(OC)cc3C2c2ccc(F)cc2)cc1 (stereo not given) |  | inactive: 14.9%
COc1c(Cl)cnn(-c2cccc(C)c2)c1=O | inconclusive [inhibitor, full curve, poor fit] | 
CCOc1cc([C@H]2[C@@H]3CCCC[C@]3(O)CCN2CC(=O)NCc2ccco2)ccc1O | inconclusive [inhibitor, partial curve, poor fit] | 
COC(=O)c1cc([N+](=O)[O-])c(-n2ccnc2)c([N+](=O)[O-])c1 | inconclusive [inhibitor, single point] | 
CN(C)C(=O)c1cc(C(=O)c2ccc(C(F)(F)F)cc2F)c[nH]1 | inconclusive [inhibitor, full curve] | 
O=S(=O)(c1ccc(F)cc1)N1CCN(CC(O)COCc2cccs2)CC1 (stereo not given) | inconclusive [inhibitor, full curve, poor fit] | 
COc1ccccc1CCNC(=O)C(=O)NCC1OCCN1S(=O)(=O)c1ccc2c(c1)OCCO2 (stereo not given) |  | inactive: 2.73%
O=C(CN1C(=O)COc2ccccc21)N(Cc1ccccc1)Cc1ccccn1 | inconclusive [inhibitor, full curve, poor fit] | 
CNC(=S)NCCCc1ccccc1 |  | inactive: -1.7%
O=C(CN1C2=NCCN2c2ccccc21)c1ccc(Br)cc1 | inconclusive [inhibitor, partial curve, poor fit] | 
Cn1c2c(c(=O)n(C)c1=O)C(c1cccc(F)c1)C(C#N)=C(N)O2 (stereo not given) | inconclusive [inhibitor, full curve, poor fit] | 
CC(C)(Oc1ccc(Cl)cc1)C(=O)Nc1c2c(nn1C(C)(C)C)CS(=O)(=O)C2 | inconclusive [inhibitor, full curve, poor fit] | 
O=C(CCc1nc2ccccc2[nH]1)NCc1ccc2c(c1)OCO2 | inconclusive [inhibitor, partial curve, poor fit] | 
COCCNCCCCOc1ccc(Br)cc1C | inconclusive [inhibitor, full curve, poor fit] | 

SMILES | Potency | activity change, negative = inhibition
COC(=O)C1C2C=CC3(CN(C(C)c4ccc(OC)cc4)C(=O)C13)O2 (stereo not given) |  | inactive: -6.5%
COc1cccc(N2CC(NC(=O)C(=O)c3c(C)[nH]c4ccccc34)CC2=O)c1 (stereo not given) | inconclusive [inhibitor, full curve] | 
CC1CC(C)CN(C(=O)COC(=O)c2ccc[nH]c2=O)C1 (stereo not given) | inconclusive [inhibitor, full curve, poor fit] | 
CC1CCCN(C(=O)c2cc3ccccc3cc2O)C1 (stereo not given) |  | inactive: 6.65%
CNC(=O)NC(=O)CSc1nc2sccc2c(=O)n1-c1ccccc1 |  | inactive: -3.65%
Cc1ccc2c(c1)CC1(CN2C)C(=O)NC(=O)N(c2cccc(C)c2C)C1=O (stereo not given) | inconclusive [inhibitor, full curve, poor fit] | 
COc1cccc(OCc2nc3ncc(Br)cc3[nH]2)c1 | inconclusive [inhibitor, full curve, poor fit] | 
Cc1ccc(C)c(S(=O)(=O)NCC(=O)OCC(=O)Nc2sccc2C(N)=O)c1 | inconclusive [inhibitor, partial curve, poor fit] | 
CC(=O)O[C@@]12CO[C@@H]1C[C@H](OC1OCC(O)C(O)C1O)[C@@]1(C)C(=O)[C@H](O)C3=C(C)[C@@H](OC(=O)[C@H](O)[C@@H](NC(=O)c4ccccc4)c4ccccc4)C[C@@](O)([C@@H](OC(=O)c4ccccc4)C12)C3(C)C (stereo not given in full) | inconclusive [inhibitor, full curve, poor fit] | 
CCc1ccc(NC(=O)CCNS(=O)(=O)c2ccc3c(c2)oc(=O)n3C)cc1 |  | inactive: 9.76%
Cc1ccnc(N2CCCC(C(=O)NCc3cccs3)C2)n1 (stereo not given) |  | inactive: 1.04%
CCC(=O)c1ccc(OCC(=O)N2CCc3cc(OC)c(OC)cc3C2)cc1 | inconclusive [inhibitor, full curve] | 
Cc1cc(=O)oc2cc(OC(=O)c3cncc(Br)c3)ccc12 |  | inactive: -2.12%
CCOC(=O)c1[nH]c2cc3c(cc2c1NC(=O)CN1CC(C)CC(C)C1)OCO3 (stereo not given) |  | inactive: -8.77%
COc1ccc(C(=O)C2CCCN(Cc3cnc(C)s3)C2)c(OC)c1 (stereo not given) |  | inactive: 0.258%
CCc1ccccc1NC(=O)CN1CCCN(Cc2cc(C)ccc2C)S1(=O)=O |  | inactive: 11.8%
COc1ccccc1-c1cc(C(=O)N/N=C\c2cn(C)nc2C)c2ccccc2n1 | inconclusive [inhibitor, partial curve, poor fit] | 
COC(=O)CNC(=O)/C=C/c1ccc(OC)cc1 |  | inactive: -6.44%
Cc1nn(CCCC(=O)NCCCN2CCN(C)CC2)c(=O)c2c1sc1ccccc12 |  | inactive: -11.9%
CCOc1ccccc1NC(=O)CSc1nnc(-c2ccccc2Cl)n1Cc1ccco1 | inconclusive [inhibitor, full curve, poor fit] | 
CCc1nn(CC(=O)NCCc2ccc(S(N)(=O)=O)cc2)c(=O)c2cc3sccc3n12 |  | inactive: 1.5%
COc1cc(C)nc(NC(=S)N(C)C(=O)c2ccccc2)n1 |  | inactive: -3.35%
CN(C)c1cc(NC(=O)CNC(C)(C)C)c2ccccc2n1 |  | inactive: -1.4%
Cc1ccc(C)c(NS(=O)(=O)c2ccc3oc(=O)ccc3c2)c1 |  | inactive: 5.37%

SMILES | Potency | activity change, negative = inhibition
COc1ccc(NC(=O)CN2C(=O)N(C)Cc3ccccc32)c(C)c1 | inconclusive [inhibitor, partial curve] | 
CCC(SC1=NCCS1)C(=O)Nc1nnc(-c2ccccc2OC)s1 (stereo not given) |  | inactive: 0.683%
CCC(C(=O)NCc1ccc(OC)c(OC)c1)n1nc(C)c2c(C)n(-c3ccc(C)cc3)nc2c1=O (stereo not given) |  | inactive: 11.4%
O=C(NNC(=O)c1ccccc1-c1ccccc1C(=O)O)c1cccc([N+](=O)[O-])c1 | inconclusive [inhibitor, partial curve, poor fit] | 
O=C(Cc1ccccc1)Nc1c(C(=O)N2CCOCC2)cnn1-c1ccccc1 | inconclusive [inhibitor, full curve] | 
CCC(C)(C)NC(=O)CN(C(=O)c1snc(C(N)=O)c1N)c1ccc2c(c1)OCCO2 | inconclusive [inhibitor, full curve, poor fit] | 
Cc1ccc(NS(=O)(=O)c2cc(-c3cnc(C4CC4)o3)ccc2C)cc1Cl | inconclusive [inhibitor, partial curve] | 
O=C(CN1N=C(c2ccccc2)CCC1=O)NCCCN1CCc2ccccc2C1 | inconclusive [inhibitor, single point] | 
COc1ccc(NC(=O)N2CCOc3ccc(Cl)cc32)cc1 |  | inactive: -5.72%
O=C(c1ccc(F)cc1)N1CCN=C1c1ccccc1 |  | inactive: -1.34%
C=CCn1c(=O)/c(=C/c2ccc(Cl)cc2)s/c1=C(/C#N)c1nnc2n1CCCCC2 | inconclusive [inhibitor, partial curve, poor fit] | 
Cc1noc(C)c1N=Nc1ccc(Br)cc1C(=O)O | inconclusive [inhibitor, full curve, poor fit] | 
CSc1ncccc1C(=O)OCc1ccc(C#N)cc1 | inconclusive [inhibitor, full curve, poor fit] | 
CS(=O)(=O)Nc1ccccc1C(=O)N1CCCC1 | inconclusive [inhibitor, full curve, poor fit] | 
CC(C)Oc1ccc(C(=O)NCC(c2ccc(N(C)C)cc2)N2CCCC2)cc1 (stereo not given) |  | inactive: 8.55%
O=C(NCC1CCCCC1)c1cc(S(=O)(=O)N2CCOCC2)ccc1F |  | inactive: 7.57%
Cc1cnc(C(=O)OCC(=O)Nc2ccc(Cl)cc2Cl)cn1 | inconclusive [inhibitor, partial curve, poor fit] | 
CCn1cc(C(=O)NCCCOC)c(=O)c2cc(S(=O)(=O)N3CCCC3)ccc21 | inactive | 
COc1ccc(N2CC(C(=O)NCCc3ccc(OC)c(OC)c3)CC2=O)cc1 (stereo not given) | inconclusive [inhibitor, partial curve, poor fit] | 
O=C(CSc1ncccn1)N1CCN(C(=O)CSc2ncccn2)CC1 | inconclusive [inhibitor, partial curve, poor fit] | 
CCSc1nnc(NC(=O)CCNS(=O)(=O)c2cc(Br)cnc2N)s1 |  | inactive: -0.371%
O=C(C1CCN(S(=O)(=O)c2ccccc2F)CC1)N1CCCC1 | inconclusive [inhibitor, full curve, poor fit] | 
